# Data as given in PubChem BioAssay AID463173 (ICCB-Longwood Screening Facility, Harvard Medical School, 2010).
# In all, about 52,000 compounds went through this assay and about 4,300 (8.3%) were called active. No stated cut-off is given here; in the data, active means survival mostly below about 52% (no sharp cut-off); inactive means mostly above about 56%. Some of the results follow.
# Test system: DeltatarO mutant
# Test: growth inhibition of S. aureus wild type versus tarO mutant, primary screen, teichoic acid synthesis inhibitors, RN4220, OD600 (AID 463173)
# Settings: OD600, 18 h, hits give low values, screened at 18.75 µg/mL (by protocol)
row,SMILES,survival
1,CCCC(=O)C1=C(c2ccc(C)c(C)c2)N(C(=O)CCC)n2c(CC)nnc2S1,inactive: 89%
2,NC(=O)c1nsc(C(=O)N(CCc2ccccc2)C(C(=O)NC2CCCC2)c2ccco2)c1N (centres undefined),inactive: 104%
3,CC1CCN(C(=O)c2cc(-c3cccc(Cl)c3)on2)CC1,active: -15%
4,COc1ccc(-c2noc(-c3ccc(NCCc4ccccc4)c([N+](=O)[O-])c3)n2)cc1OC,inactive: 57%
5,CCOc1ccc(-c2cc(NC(=O)c3ccc(C)cc3)c(C(=O)OC)s2)cc1,inactive: 70%
6,Cc1cc(C)cc(-n2c(SCC(=O)NCC3CCCO3)nc3c([nH]c4ccccc43)c2=O)c1 (centres undefined),inactive: 96%
7,COc1ccc2c(c1)-c1nc(NC(=O)c3ccc(C)cc3)sc1CC2,active: 5%
8,CCCC(=O)Nc1ccccc1NC(=O)CCC,inactive: 74%
9,CCOc1ccc(NC(=O)Nc2ccc3snnc3c2)cc1,inactive: 110%
10,COc1cccc(CNC(=O)Cc2c(C)c3c(cc(C)c4c(C)coc43)oc2=O)c1,inactive: 84%
11,Nc1ccccc1OC(=O)C[n+]1ccccc1,inactive: 70%
12,COc1ccc(OC)c(CNC(=O)CCCn2nc(C)c3c(C)n(-c4ccc(C)cc4)nc3c2=O)c1,inactive: 68%
13,O=C(Cn1ncc2c3ccccc3n(Cc3ccccc3)c2c1=O)Nc1ccccc1C(F)(F)F,inactive: 93%
14,CC(C)c1ccc(NS(=O)(=O)c2ccc3[nH]cc(C(=O)N4CCCC4)c(=O)c3c2)cc1,inactive: 76%
15,CCn1ccc2cc(S(=O)(=O)N3CCCN(C(=O)Nc4cc(Cl)ccc4C)CC3)ccc21,inactive: 79%
16,COc1ccc(OC(C)c2nc3ccccc3[nH]2)cc1 (centres undefined),inactive: 72%
17,O=C(Nc1ccc2oc(-c3cccnc3)nc2c1)c1ccc(-c2ccccc2)o1,active: 45%
18,CCc1ccc(NC(=O)C(=O)NCC(c2cccnc2)N2CCN(C)CC2)cc1 (centres undefined),inactive: 109%
19,Cn1ccc2c(OCC(=O)NCc3ccccc3Cl)cccc2c1=O,inactive: 89%
20,CC(=O)N1CCC2(CC1)OC(=O)C(C)=C2C(=O)NCc1ccc(Cl)cc1,inactive: 58%
21,CCc1ccc(CNC(=O)c2ccc3nc(C(C)C)oc3c2)cc1,inactive: 82%
22,Cc1nn(-c2nc(-c3ccc(F)cc3)cc(C(F)(F)F)n2)c(C)c1Cl,active: 5%
23,COc1cc(C(=O)Nc2ccc(NC(=O)c3ccc(Br)cc3)cc2)cc(OC)c1OC,inactive: 75%

row,SMILES,survival
1,CCC1CCCCN1C(=O)CSc1nc2c([nH]c3ccccc32)c(=O)n1-c1cccc(OC)c1 (centres undefined),inactive: 66%
2,Cc1ccc(-n2ccnc(NCCc3ccc(S(N)(=O)=O)cc3)c2=O)cc1C,inactive: 81%
3,Cc1oc(-c2cccc(Cl)c2)nc1CSc1nc2ncccc2[nH]1,inactive: 71%
4,Cc1cccc(N2CCN(C(=O)c3cc4c(=O)n(C)c5ccccc5c4s3)CC2)c1C,active: 47%
5,O=C(O)c1ccc2nc(-c3cc4cc(F)ccc4oc3=O)[nH]c2c1,inactive: 117%
6,COC(=O)c1ccc(Cl)cc1NC(=O)N(C)CCc1c(C)nn(C)c1C,inactive: 115%
7,CCOc1ccc(NC(=O)C(=O)NCCc2csc3nc(-c4ccccc4F)nn23)cc1,active: -1%
8,Cc1ccc(CN2CCN(C3CCN(S(=O)(=O)c4ccc(C)cc4)CC3)C(=O)C2=O)cc1,inactive: 85%
9,COc1cc(NC(=O)C(CC(C)C)NS(=O)(=O)c2ccc3c(c2)oc(=O)n3C)c(C(=O)O)cc1OC (centres undefined),inactive: 121%
10,CCOC(=O)c1ccc(NC(=O)c2csc3c2CCCCC3)cc1,active: 39%
11,CCOc1ccc(NC(=O)Cn2cc(C(=O)c3ccc(C)c(C)c3)c(=O)c3cc(OC)c(OC)cc32)cc1,inactive: 95%
12,Cc1noc(C)c1S(=O)(=O)N(CC(=O)NCc1ccccc1Cl)c1ccc(C(C)C)cc1,inactive: 88%
13,O=C(Nc1ccc(F)cc1F)c1c2c(nc3ccccc13)C(=O)N(C1CCCCC1)C2,inactive: 81%
14,O=C(NCc1cccs1)C1CCN(C(=O)N2CCOc3ccccc32)CC1,inactive: 107%
15,O=C(CSc1nc2c([nH]c3ccccc32)c(=O)n1-c1ccccc1)c1ccccc1,inactive: 77%
16,COc1ccc(OC)c(NC(=O)c2ccc(CSc3nnnn3C)cc2)c1,inactive: 101%
17,O=C(Nc1c(-c2ccccc2)nc2ccccn12)c1ccc(Br)cc1,active: 31%
18,COc1ccc(Cn2ccnc2SCC(=O)NCc2ccccc2)cc1,inactive: 90%
19,CCC1CCCCN1C(=O)c1nn(-c2ccc(C)cc2)c(=O)c2c1c1ccccc1n2C (centres undefined),inactive: 97%
20,CCOc1ccc(CCNC(=O)c2cnc3sc(N4CCOCC4)nn3c2=O)cc1,inactive: 67%
21,CCOc1ccc(C2C(=O)N(C3CCCCCC3)CC(=O)N2CCc2ccccc2)cc1OC (centres undefined),inactive: 88%
22,COC(=O)CSc1nnc2n1C(C)(C)Cc1ccccc1-2,inactive: 103%
23,COc1ccccc1-c1ccnc2[nH]n(-c3ccccc3)c(=O)c12,inactive: 64%

row,SMILES,survival
1,CCOc1ccc(C(=O)Nc2ccc(S(=O)(=O)N3CCCCC3c3cccnc3)cc2)cc1 (centres undefined),inactive: 73%
2,Cc1cccc(N2CCN(c3nc4ccccc4c(=O)n3-c3ccc(Cl)cc3)CC2)c1C,inactive: 78%
3,Cc1ccc(C)c(S(=O)(=O)NCC(c2ccco2)S(=O)(=O)c2ccc(F)cc2)c1 (centres undefined),inactive: 124%
4,COc1cccc(C2C3=C(CCCC3=O)N(C)C3=C2C(=O)CCC3)c1,inactive: 85%
5,Cc1cccc(C=Nc2ccc(-c3nc4ccccc4o3)cc2)c1O,inactive: 99%
6,COc1ccc(CN2COc3ccc4c(-c5ccc(OC)cc5)cc(=O)oc4c3C2)cc1,inactive: 65%
7,CC(=O)Nc1ccc(Nc2ccccc2)cc1,inactive: 61%
8,CCc1ccc(-n2nc(C)c3c(C(=O)NCCc4ccc(OC)c(OC)c4)cc(C)nc32)cc1,inactive: 81%
9,O=c1[nH]ncc(NCCc2ccccc2)c1Cl,inactive: 101%
10,COc1ccc(CNC(=O)Cn2ncn3nc(-c4cccs4)cc3c2=O)cc1,inactive: 70%
11,Cc1ccc(-c2nc(S(=O)(=O)c3ccc(C)cc3)c(N3CCN(c4ccccc4)CC3)o2)cc1,inactive: 97%
12,Cc1ccc(C)c(N2CCN(CCCNC(=O)Cn3ncc4c([nH]c5ccccc54)c3=O)CC2)c1,inactive: 94%
13,COc1ccc2c(=O)c(NC(=O)NCCCN3CCCC3=O)c[nH]c2c1,inactive: 93%
14,COc1ccc(N2CCN(S(=O)(=O)CCNC(=O)c3ccc(C(F)(F)F)cc3)CC2)cc1,inactive: 99%
15,CCOC(=O)c1cc(OC(=O)c2ccc(Cl)cc2)n(-c2ccccc2)n1,active: 85%
16,Cc1ccc(N(CC(=O)N2CCN(c3ccc(Cl)cc3)CC2)S(=O)(=O)c2c(C)noc2C)cc1,inactive: 64%
17,COc1ccc(-c2nn(CC(=O)Nc3ccccc3F)c3c2cnc2ccc(F)cc23)cc1,inactive: 83%
18,COc1ccc(C2C(=O)N(C3CCCCC3)CC(=O)N2Cc2ccccc2Cl)cc1OC (centres undefined),inactive: 117%
19,COc1ccccc1N(CC(=O)Nc1ccccc1F)S(C)(=O)=O,inactive: 73%
20,CCCCN(CCCC)CCNC(=O)CN1C(=O)CSc2ccc(S(=O)(=O)N3CCCCC3)cc21,inactive: 94%
21,Cc1cccc(CN2C(=O)CC(c3ccc(Cl)cc3)c3c(C)nn(-c4nc(C)cc(C)n4)c32)c1 (centres undefined),inactive: 72%
22,COc1ccc(C2NC(=O)c3c(sc4c3CCN(C)C4)N2)cc1O (centres undefined),inactive: 51%
23,CCN(CCCNC(=O)c1cc2c(=O)[nH]c3ccc(C)cc3c2s1)c1ccc(C)cc1,inactive: 68%

row,SMILES,survival
1,CCCNc1nc(NCc2ccccc2OC)c2cnn(C)c2n1,inactive: 78%
2,CCc1ccc(NC(=O)C(CC)n2nnc(C(=O)OC)c2C(=O)OC)cc1 (centres undefined),active: -3%
3,CCOc1ccc(-n2nc3cc(C)c(NC(=O)CC)cc3n2)cc1,inactive: 73%
4,Cc1ccc(Cl)cc1N1CCN(S(=O)(=O)c2ccc3[nH]c4c(c3c2)CCCC4)CC1,inactive: 72%
5,COc1ccccc1NC(=O)CN1C(=O)c2cccc3cccc1c23,inactive: 62%
6,Cc1cccc(N2CCN(C(=O)C3CCN(S(=O)(=O)c4cn(C)cn4)CC3)CC2)c1C,inactive: 92%
7,CC(=O)NC1C(Oc2ccccc2C)OC2COC(C)(C)OC2C1O (centres undefined),inactive: 73%
8,CCCCCn1c(=O)[nH]c2cc(C(=O)NCc3ccc(OC)cc3)ccc2c1=O,inactive: 71%
9,CCOC(=O)c1ccc(NC(=O)CCS(=O)(=O)c2ccc3c(c2)oc(=O)n3C)cc1,inactive: 94%
10,O=C(NCc1ccc2c(c1)OCO2)c1ccc2c(c1)N(Cc1ccc(F)cc1)C(=O)c1ccccc1S2=O (centres undefined),inactive: 95%
11,Cc1ccc2nc(N(Cc3cccnc3)C(=O)c3ccc4c(c3)OCCO4)sc2c1,inactive: 70%
12,CCOCCc1nn2c(=O)cc(COC(=O)c3cccs3)nc2s1,inactive: 134%
13,Cc1ccc(Cl)cc1Nc1nn2c(=O)c3ccc(C(=O)NCc4cccs4)cc3nc2s1,inactive: 119%
14,COc1ccccc1NC(=O)C1CCN(S(=O)(=O)c2ccc3c(c2)oc(=O)n3C)CC1,inactive: 88%
15,CCCN1C(=O)c2ccccc2CC1(C)C(=O)NC1CCCCC1 (centres undefined),inactive: 101%
16,Cc1ccc(NC(=O)N2CCN(c3nnc(C)c4c(C)n(-c5ccccc5)nc34)CC2)cc1Cl,inactive: 94%
17,CCOc1ccccc1CNC(=O)c1cnc2sc(N3CCCC3)nn2c1=O,inactive: 90%
18,CCC(CO)Nc1ncnc2c1cnn2-c1ccc(C)cc1 (centres undefined),active: -5%
19,CCOCCCn1c(SCC(=O)Nc2cccc(OC)c2)nc2ccccc2c1=O,inactive: 97%
20,COc1cccc(C(=O)NCC(=O)NN)c1,inactive: 84%
